# Out of some 48,000 compounds screened, about 120 (0.25%) were called active. About 4% were inconclusive and are not listed. Calls come from the whole dose curve; as a rule, active = well fitted activation curve with a large enough effect; inconclusive = small, poorly fitted or top-dose-only effect, or another doubt; inactive = no such curve, though single readings can be large or run the other way. The list shows a part of the results.
# Assay: Primary qHTS for Identification of Small Molecule Activators of Huntingtin-Antisense Promoter Activity; note: nearly all actives have a fitted effect of over 55% in size
# Conditions: HEK293 HTT-AS promoter firefly luciferase reporter, 24 h; series mostly up to 57.5 µM; activity change, positive = activation: at the top concentration
# Outline: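 Firefly luciferase readout (Dual-Glo, 10 min RT) after 24 h, 37 °C compound exposure (final up to 57.5 uM) of HEK293 reporter cells cultured 24 h beforehand; PTC124 at 50 uM final as control inhibitor; activity scaled vehicle 0%, zero RLU -100%.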
row,Compound,"activity change, positive = activation"
1,CCC(=O)Nc1ccc2nc3c(=O)n(C)c(=O)n(C)c3nc2c1,inactive: 5.67%
2,CCOc1ccc(C(=O)Nc2ccc(-n3nncc3-c3ccccc3)cc2)cc1OCC,inactive: -33.5%
3,CCN(C(=O)c1cc2c(=O)n3cccc(C)c3nc2s1)c1ccc(C)c(C)c1,inactive: -21.3%
4,CCOC(=O)[C@H]1O[C@H]1C(=O)N[C@@H](CC(C)C)C(=O)NCCC(C)C,inactive: -7.39%
5,CCC(NC(=O)Nc1cc(OC)ccc1OC)c1c(-n2cccc2)sc2c1CCN(CC)C2 (stereo unspecified),inactive: -14.6%
6,CCOC(=O)c1ccc(NC(=O)C2(S(=O)(=O)c3ccc(Cl)cc3)CC2)cc1,inactive: -15.5%
7,C=Cc1ccc(COc2ccc3oc(-c4ccccc4)c(C(=O)OCC)c3c2)cc1,"inactive: 28% [at 11.5 µM, percent change from vehicle, -100% = no light]"
8,COc1ccc(CNC(=O)c2cc(=O)c3cc(C)ccc3o2)cc1,inactive: -14.4%
9,Cc1cccc(C)c1NS(=O)(=O)c1ccc(NS(=O)(=O)c2ccc3c(c2)OCCO3)cc1,inactive: -28.2%
10,Cc1ccccc1NC(=O)CCC(=O)N1CC(C)Sc2ccccc21 (stereo unspecified),inactive: -26.5%
11,COc1cccc(CNC(=O)CSC2=Nc3ccccc3C3=NC(C(C)C)C(=O)N23)c1 (stereo unspecified),inactive: 12%
12,Cc1ccc(C)c(N2CCN(CCCNC(=O)c3ccc4nc(N5CCCCC5)sc4c3)CC2)c1,inactive: -35.4%
13,Cc1ccc(-c2nnc(Nc3ccccc3)c3ccccc23)cc1S(=O)(=O)NCc1nc2ccccc2[nH]1,inactive: -33.1%
14,Cc1cccc(N2CCN(C(=O)CCS(=O)(=O)c3ccc4c(c3)oc(=O)n4C)CC2)c1C,"inactive: 5.6% [at 11.5 µM, percent change from vehicle, -100% = no light]"
15,CCOC(=O)COc1ccc([N+](=O)[O-])cc1-c1ccnc2cc(-c3ccc(C)cc3)nn12,inactive: -6.09%
16,COc1ccc(C(=O)N(c2ccc(OC)cc2)S(=O)(=O)c2ccc3c(c2)n(C)c(=O)n3C)cc1,inactive: -9.4%
17,COc1ccccc1C(=O)Nc1cccc(C(=O)OCc2cc(=O)n3nc(C)sc3n2)c1,inactive: -3.66%
18,O=C(c1cc2ccc3cccnc3c2[nH]1)N1CCN(c2ccc(Cl)cc2)CC1,inactive: -0.746%
19,Cc1c(Cl)cccc1NC(=O)Cn1nnc2sc3c(c2c1=O)CCCC3,inactive: -6.63%
20,O=C(O)C1(Cc2cccc(Nc3nccs3)n2)CCC(Oc2cccc(Cl)c2F)CC1 (stereo unspecified),inactive: -13.5%
21,O=C(Nc1cccc(Cl)c1Cl)c1cc(S(=O)(=O)NCCc2ccccc2)ccc1F,inactive: -20.1%
22,O=C(CN1C(=O)C2(SCC(=O)N2c2ccccc2)c2ccccc21)NCc1ccccc1 (stereo unspecified),inactive: -8.41%
23,NC(=O)CSc1ncc2c(n1)-c1ccccc1N(Cc1ccc(Cl)cc1)S2(=O)=O,inactive: -4%

row,Compound,"activity change, positive = activation"
1,CCCNC(=O)C(CC)n1nc(CC)n2c(cc3oc(C)cc32)c1=O (stereo unspecified),inactive: -27.6%
2,COc1cccc(C(=O)c2cn(CC(=O)NCCc3ccccc3)c3nc(C)ccc3c2=O)c1,inactive: -12.1%
3,CCOC(=O)N1CCc2c(sc3c2C(=O)NC(c2cc(OC)c(O)c(OC)c2)N3)C1 (stereo unspecified),inactive: 9.07%
4,CCCN(CCC)CCCNC(=O)Cn1cc2c(n1)-c1c(oc(C(=O)N3CCCC3)c1C)CC2,inactive: -11.4%
5,COc1cccc(NC(=O)Cn2c(=O)n(CCc3ccccc3)c(=O)c3c4c(sc32)CN(C(C)=O)CC4)c1,inactive: -29%
6,Cc1ccc(C(=O)c2oc3ccccc3c2NC(=O)COc2ccccc2Cl)cc1,inactive: -4.69%
7,CCOc1ccc(NC(=O)NCc2ccc3c(c2)CCN3C(C)=O)cc1,inactive: 8.3%
8,CCOC(=O)c1cc2c(=O)n3ccccc3nc2n(CC2CCCO2)c1=NC(=O)c1ccc(OC)cc1OC (stereo unspecified),inactive: -3.75%
9,Cc1cc(C)n(-c2nc3ccccc3nc2N2CCN(c3cccc(C)c3C)CC2)n1,inactive: -3.28%
10,COc1cccc(CNC(=O)C2(c3cccs3)CCOCC2)c1,inactive: -8.29%
11,CCOC(=O)c1c(NC(=O)CSc2cn(CCNC(=O)c3ccccc3OC)c3ccccc23)sc2c1CCC2,inactive: -27.6%
12,CC(C)c1nc2n(n1)C1(CCCCC1)[C@@H]1CCCC[C@@H]1N2,inactive: -5.94%
13,CCOc1ccc(-n2c(CC)nc3c(cnn3-c3ccc(Cl)cc3)c2=O)cc1,inactive: -53%
14,N#CC1(c2ccc(NC(=O)c3cccnc3NCc3ccncc3)cc2)CCCC1,inactive: 5.83%
15,COc1ccc(-c2nc3c4ccccc4n(CC(=O)N4CCN(c5ccc(F)cc5)CC4)c(=O)n3n2)cc1,inactive: -2.62%
16,COc1c(Cl)cc(C(=O)N(Cc2ccc(C)o2)C2CCS(=O)(=O)C2)cc1Cl (stereo unspecified),inactive: -23.1%
17,Cc1cccc(Cn2c(C)c(CNC3CCCCCC3)c(C(=O)O)c2C)c1,inactive: -21.7%
18,Cc1oc(-c2cccc(Cl)c2)nc1CN1CCCC(C(=O)N2CCN(c3ccc(F)cc3)CC2)C1 (stereo unspecified),inactive: -50.6%
19,O=C(Cn1c(=O)c2ccccc2n(CC(=O)Nc2ccc(F)cc2)c1=O)NCCc1ccccc1,inactive: -39.7%
20,COc1ccccc1N(CC(=O)Nc1ccc(C)c(Cl)c1)S(=O)(=O)c1ccc(C)cc1,inactive: -30.7%
21,CCOc1ccc(CC(=O)NC2CC(=O)N(c3ccc(C)c(C)c3)C2)cc1 (stereo unspecified),inactive: -15.5%
22,CC1(C)Cc2c(sc(NC(=S)NC(=O)c3ccccc3)c2C(=O)O)CO1,inactive: -34%
23,O=C(C1CCC1)N1CCCc2cc(S(=O)(=O)Nc3ccc(F)cc3)ccc21,inactive: -29.4%

row,Compound,"activity change, positive = activation"
1,C#CC(C)(CC)NC(=O)c1cc2c(n(-c3ccc(Cl)cc3)c1=O)CC(C)(C)CC2=O (stereo unspecified),inactive: -23.9%
2,COCCn1c(C)cc(O)c(C(c2ccc(C)cc2)N2CCCCC2)c1=O (stereo unspecified),inactive: 4.94%
3,CC(=O)N1CCc2cc(Br)cc(S(=O)(=O)N3CCN(c4cc(C)ccc4C)CC3)c21,inactive: -9.53%
4,CC(=O)N1c2ccccc2C(=O)C1N1CCN(c2cccc(C(F)(F)F)c2)CC1 (stereo unspecified),inactive: -35.5%
5,Cc1ccccc1OCC(=O)N(Cc1ccc(N(C)C)cc1)CC1CCCO1 (stereo unspecified),inactive: -24.8%
6,OCc1nc2ccccc2n1Cc1c(F)cccc1Cl,inactive: -22.6%
7,Cn1cc(-c2cc3n(n2)CCC(=O)N3CC(=O)O)c2ccccc21,inactive: 2.5%
8,Cc1cccc(CNC(=O)CCCN2C(=O)CCn3nc(-c4cn(C)c5ccccc45)cc32)c1,inactive: -22.7%
9,CCN(CC)c1ccc(NC(=O)c2cc(S(=O)(=O)N3CCc4ccccc43)cn2C)c(C)c1,inactive: -11.3%
10,CCN1CCN(c2c(S(=O)(=O)c3ccccc3)cnc3ccc(Cl)cc23)CC1,inactive: -9.43%
11,Cn1c(=O)n(C/C=C/c2ccccc2)c(=O)c2c1nc1n2CCN1c1ccc(Cl)cc1,inactive: -0.314%
12,COc1ccc(Cn2c(SCc3ccc(C(=O)NCCc4ccccc4)cc3)nc3cccnc32)cc1,inactive: -8.72%
13,CCN(CC)c1nn2c(=O)c(C(=O)NCc3cccc(C)c3)cnc2s1,inactive: -14.2%
14,Cn1nc(-c2ccccc2F)c2cc(C(=O)N3CCN(c4ccc(F)cc4)CC3)sc21,inactive: -77.8%
15,CCOC(=O)c1[nH]c(C)c(CCC(=O)NCc2ccccc2C)c1C,inactive: -17.7%
16,CCn1cc(S(=O)(=O)c2ccc(C)cc2)c(=O)c2cc(F)c(N3CCCCCC3)cc21,inactive: -2.97%
17,Cc1ccc(NC(=O)CSc2ncnc3c2sc2ccccc23)cc1C,inactive: 3.83%
18,Cc1nn(C(=O)c2cccc(F)c2)c(C)c1S(=O)(=O)N1CCCCCC1,inactive: -7.97%
19,CCC(C)NC(=O)Cn1c(=O)n(Cc2ccc(C(=O)NCc3ccccc3OC)cc2)c(=O)c2ccccc21 (stereo unspecified),inactive: -25.1%
20,Cc1cccc(N2CCN(S(=O)(=O)c3ccc(F)c(C(=O)Nc4ccc(C(C)C)cc4)c3)CC2)c1C,inactive: -16.3%
21,Cc1ccc(C)c(NC(=O)CSc2nc(=O)n(Cc3ccccn3)c3c2CCC3)c1,inactive: -11%
22,NCCc1ccc(O)c(O)c1,inactive
23,COc1ccc(OC)c(Nc2ncnc3c2cnn3-c2ccc(C)cc2)c1,inactive: -2.81%

row,Compound,"activity change, positive = activation"
1,Cc1cc(C)cc(NS(=O)(=O)c2ccc3[nH]cc(C(=O)N4CCCCCC4)c(=O)c3c2)c1,inactive: -12.8%
2,COc1ccc(NC(=O)C(=O)NCCc2ccc(OC)c(OC)c2)c(OC)c1,"inactive: 12.6% [at 11.5 µM, percent change from vehicle, -100% = no light]"
3,COc1ccccc1CNc1nc2ccccc2c2nc(-c3cccnc3)nn12,inactive: -3.84%
4,O=C(COc1ccccc1Cl)OCc1cc(=O)n2nc(C3CC3)sc2n1,inactive: -9.59%
5,COCCCNC(=O)c1cnn(-c2ccccc2Cl)c1C1CCN(C(=O)OC(C)(C)C)CC1,inactive: -1.44%
6,COc1ccc(CNC(=O)C2CCN(C(=O)c3ccc(-n4ccc5ccccc54)s3)CC2)cc1,inactive: -9.62%
7,COc1ccc(CCNC(=O)c2cccc(-n3c(C)nc4cccnc43)c2)cc1OC,inactive: -8.7%
8,COC(=O)c1ccc(NC(=O)CSc2cn(CC(=O)N3CCCCCC3)c3ccccc23)cc1,inactive: -23.3%
9,COc1ccc(-c2cc3nc(-c4ccc(Br)cc4)cc(C(F)(F)F)n3n2)cc1,inactive: -0.339%
10,COCCCn1c(=N)c(S(=O)(=O)c2ccccc2)cc2c(=O)n3cc(C)ccc3nc21,inactive: 5.77%
11,Cc1ccc(OCC(=O)OCc2cc(=O)n3nc(-c4cccs4)sc3n2)cc1,inactive: 12.1%
12,COc1cccc(NC(=O)C2CCCN(c3nnc(-n4c(C)ccc4C)s3)C2)c1 (stereo unspecified),inactive: 12.3%
13,COc1ccccc1CNC(=O)CCCn1nc(C)c2sc3ccccc3c2c1=O,inactive: -1%
14,Cc1ccccc1OCC(=O)Nc1ccc2nc(SCC(=O)N(C)c3ccccc3)sc2c1,inactive: -38.6%
15,CC(C)(C)OC(=O)N1CCC(c2c(C(=O)N3CCN(c4ccc(Cl)cc4)CC3)cnn2-c2ccc(F)cc2F)CC1,inactive: -34.6%
16,COc1ccc(Cl)cc1NC(=O)c1cc2ccc3ccc(C)[nH]c3c2n1,inactive: 3.25%
17,Cn1cc(S(=O)(=O)c2ccc(Cl)cc2)c(=O)c2cc(F)c(N3CCCC3)cc21,inactive: -19.1%
18,Cc1nc2sccn2c(=O)c1S(=O)(=O)NCc1ccc(F)cc1,inactive: -4.17%
19,CCc1ccc(NC(=O)CSc2c(C)cnc3c2c(=O)n(C)c(=O)n3C)cc1,inactive: -15.2%
20,Cn1c(=O)c2nc(SCC(=O)Nc3cc(Cl)cc(Cl)c3)n(C)c2n(C)c1=O,inactive: -8.32%
21,Cc1ccc(Cn2c(CNS(=O)(=O)c3ccc(C(C)(C)C)cc3)nc3cccnc32)cc1,inactive: -33.2%
22,C[C@H](Cc1ccc(O)c(O)c1)[C@@H](C)Cc1ccc(O)c(O)c1,inactive: -49.4%
